# Data taken from the RNAGym collection of RNA variant scans (doi:10.1073/pnas.2313332121).
# Variants at the floor of the assay are shown more often than the library holds them.
# B1: TPR 5TU (parent)
# chain: GGAUCUUCUCGAUCUAACAAAAAAGACAAAUCUGCCACAAAGCUUGAGAGCAUCUUCGGAUGCAGAGGCGGCAGCCUUCGGUGGCGCGAUAGCGCCAACGUUCUCAACUAUGACACGCAAAACGCGUGCUCCGUUGAAUGGAGUUUAUCAUG
# Variants of: B1
# Assay: polymerase ribozyme fitness, log enrichment relative to wild type (log ratio); higher = more active; in vitro selection for triplet polymerase activity
# Outline: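 Mutant libraries were PCR-built and transcribed for each subunit of a heterodimeric triplet polymerase ribozyme and selected for one round in triplicate at −7 °C, frozen, before gel excision of extended constructs and streptavidin-bead capture. Input and output libraries were Illumina-sequenced, keeping genotypes with ≥10 input reads and ≥1 read per output. Fitness is a logarithmic ratio of genotype to wild-type enrichment, in base 2, using inverse-variance-weighted replicate averages.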
row,Variant,polymerase ribozyme fitness (log ratio)
1,GGAUCUUCUCGAUCUAACAAAAAAGACAAAUCUGCCACAAAGCUUGAGAGCAUCUUCGGAUGCAGAGGCGGCAGCCUUCGGUGGCGCGAGAGCGUCAACGUUCUCAACGAUGACACGCAAAACGCGUGCUCCGUUGCAUGGAGUUUAUCAUG [U90G C95U U109G A137C],≤ -4.2
2,GGAUCUUCUCGAUCUAACAAAAAAGACAAAUCUGCCACAAAGCUUGAGAGCAUCUUCGGAUGCAGAGGCGGCAGCCUUCGGUGGCGCGAGAGCGCAAACGUUCUCAACUAUGACACGAAAAACGCGUGCUCCGUUGAAUGGAGUUUAUCAUG [U90G C96A C118A],≤ -4.2
3,GGAUCUUCUCGAUCUAACAAAAAAGACAAAUCUGCCACAAAGCUUGAGAGCAUCUUCGGAUGCAGAGGCGGCAGCCUUCGGUGGCGCGAGAGCGCAAACGUUCUCAACUAUGACACGCAAAACGCGUGCUGCGUUGAAUGGAGUUUAUCAUG [U90G C96A C131G],≤ -4.2
4,GGAUCUUCUCGAUCUAACAAAAAAGACAAAUCUGCCACAAAGCUUGAGAGCAUCUUCGGAUGCAGAGGCGGCAGCCUUCGGUGGCGCGAGAGCGCCAACGUUCUCAACUAUGACAGGCAAAACGCGUGCUCCGUUGAAUGGAGUUUAUCAUG [U90G C116G],-3.78
5,GGAUCUUCUCGAUCUAACAAAAAAGACAAAUCUGCCACAAAGCUUGAGAGCAUCUUCGGAUGCAGAGGCGGCAGCCUUCGGUGGCGCGAGACCGCCAACGUUCUCAACUAUGACACGCAAAACGCGUGCUCCGUUGAAUGGAGUUAAUCAUG [U90G G92C U146A],≤ -4.2
6,GGAUCUUCUCGAUCUAACAAAAAAGACAAAUCUGCCACAAAGCUUGAGAGCAUCUUCGGAUGCAGAGGCGGCAGCCUUCGGUGGCGCGAGAUCGCCAAGGUUCUCAACUAUGACACGCAAAACGCGUGCUCCGUUGAAUGGAGUUUAUCUUG [U90G G92U C99G A150U],≤ -4.2
7,GGAUCUUCUCGAUCUAACAAAAAAGACAAAUCUGCCACAAAGCUUGAGAGCAUCUUCGGAUGCAGAGGCGGCAGCCUUCGGUGGCGCGAGAGCGCCAACGUUCUCAACUAUGACACGCAAAACGCGUGCUCCCUUGAAUGCAGUUUAUCAUG [U90G G133C G141C],≤ -4.2
8,GGAUCUUCUCGAUCUAACAAAAAAGACAAAUCUGCCACAAAGCUUGAGAGCAUCUUCGGAUGCAGAGGCGGCAGCCUUCGGUGGCGCGAGAGCGCCAACGUUCUCAACUAUGACACGCAAAACGCGUGCUCCGUUGAAUCGAGUUUAUCAUG [U90G G140C],≤ -4.2
9,GGAUCUUCUCGAUCUAACAAAAAAGACAAAUCUGCCACAAAGCUUGAGAGCAUCUUCGGAUGCAGAGGCGGCAGCCUUCGGUGGCGCGAGAGCGCCAACGUUCUCAACUAUGACACGCAAAACGCGUGCUCCGUUGAAUGGACUUUAUCAUG [U90G G143C],≤ -4.2
10,GGAUCUUCUCGAUCUAACAAAAAAGACAAAUCUGCCACAAAGCUUGAGAGCAUCUUCGGAUGCAGAGGCGGCAGCCUUCGGUGGCGCGAGAGCGCCAACGUUCUCAACUAUGACACGCAAAACGCGCGCUCCGUUGAAUGGAGUUUAUCAUG [U90G U127C],≤ -4.2
11,GGAUCUUCUCGAUCUAACAAAAAAGACAAAUCUGCCACAAAGCUUGAGAGCAUCUUCGGAUGCAGAGGCGGCAGCCUUCGGUGGCGCGAUCGCGCCAUCGUUCUUAACUAUGACACGCAGAACGCGUGCUCCGUUGAAUGGAGUUUAUCAUG [A91C A98U C105U A120G],≤ -4.2
12,GGAUCUUCUCGAUCUAACAAAAAAGACAAAUCUGCCACAAAGCUUGAGAGCAUCUUCGGAUGCAGAGGCGGCAGCCUUCGGUGGCGCGAUCGCGCCAACGUUCUCGACUAUGACACGCAAAACGCGUGCUCCGUUGAAUGGAGUUUAUCAUG [A91C A106G],≤ -4.2
13,GGAUCUUCUCGAUCUAACAAAAAAGACAAAUCUGCCACAAAGCUUGAGAGCAUCUUCGGAUGCAGAGGCGGCAGCCUUCGGUGGCGCGAUCGCGCCAACGUUCUCAUCUAUGACACGCAAAACGCGUGCUCCGUUGAAUGGAGUUUAUCAUG [A91C A107U],≤ -4.2
14,GGAUCUUCUCGAUCUAACAAAAAAGACAAAUCUGCCACAAAGCUUGAGAGCAUCUUCGGAUGCAGAGGCGGCAGCCUUCGGUGGCGCGAUCGCGCCAACGUUCUCAACUAUGACACGCACAACGCGUGCUCCGUUGAAUGGAGUUUAUCAUG [A91C A120C],≤ -4.2
15,GGAUCUUCUCGAUCUAACAAAAAAGACAAAUCUGCCACAAAGCUUGAGAGCAUCUUCGGAUGCAGAGGCGGCAGCCUUCGGUGGCGCGAUCGUGCCAACGUUCUCAACUAUGACACGCAAAACGGGUGCUCCGUUGAAUGGAGUUUAUCAUG [A91C C93U C125G],≤ -4.2
16,GGAUCUUCUCGAUCUAACAAAAAAGACAAAUCUGCCACAAAGCUUGAGAGCAUCUUCGGAUGCAGAGGCGGCAGCCUUCGGUGGCGCGAUCGCGUAAACGUUCUCCACUAAGACACGCAAAACGCGUGCUCCGUUGAAUGGAGUUUAUCCUG [A91C C95U C96A A106C U111A A150C],≤ -4.2
17,GGAUCUUCUCGAUCUAACAAAAAAGACAAAUCUGCCACAAAGCUUGAGAGCAUCUUCGGAUGCAGAGGCGGCAGCCUUCGGUGGCGCGAUCGCGCAAACGUUCUCAACUAUGACACGCAAAACGCAUGCUCCGUUGAAUGGAGUUUAUCAUG [A91C C96A G126A],≤ -4.2
18,GGAUCUUCUCGAUCUAACAAAAAAGACAAAUCUGCCACAAAGCUUGAGAGCAUCUUCGGAUGCAGAGGCGGCAGCCUUCGGUGGCGCGAUCGCGCCAACGUUGUCAACUAUGACUCGCAAAACGCGUGCUCCGUCGAAUGGAGAUUAUCAUG [A91C C103G A115U U135C U144A],≤ -4.2
19,GGAUCUUCUCGAUCUAACAAAAAAGACAAAUCUGCCACAAAGCUUGAGAGCAUCUUCGGAUGCAGAGGCGGCAGCCUUCGGUGGCGCGAUCGCGCCAACGUUCUCAAGUAUGACACGCAUAACGCGUGCUCCGUUGAAUGGAGUUUAUCAUG [A91C C108G A120U],≤ -4.2
